Reference: article PMC6919601, “Identification of Plasmodium dipeptidyl aminopeptidase allosteric inhibitors by high throughput screening” (PLoS ONE, 2019)
About 230 (0.21%) of roughly 110,000 compounds showed an effect of 50% or more. Some of the results follow.

molecular target: DPAP1 (Plasmodium falciparum, UniProt Q8IIJ9); assay: primary screen, percent inhibition; read by cleavage of a fluorogenic dipeptide substrate; higher = more effect of the substance; parameters: species or system P. falciparum D10 trophozoite lysates; single well
Sequence (Q8IIJ9 whole entry, looked up): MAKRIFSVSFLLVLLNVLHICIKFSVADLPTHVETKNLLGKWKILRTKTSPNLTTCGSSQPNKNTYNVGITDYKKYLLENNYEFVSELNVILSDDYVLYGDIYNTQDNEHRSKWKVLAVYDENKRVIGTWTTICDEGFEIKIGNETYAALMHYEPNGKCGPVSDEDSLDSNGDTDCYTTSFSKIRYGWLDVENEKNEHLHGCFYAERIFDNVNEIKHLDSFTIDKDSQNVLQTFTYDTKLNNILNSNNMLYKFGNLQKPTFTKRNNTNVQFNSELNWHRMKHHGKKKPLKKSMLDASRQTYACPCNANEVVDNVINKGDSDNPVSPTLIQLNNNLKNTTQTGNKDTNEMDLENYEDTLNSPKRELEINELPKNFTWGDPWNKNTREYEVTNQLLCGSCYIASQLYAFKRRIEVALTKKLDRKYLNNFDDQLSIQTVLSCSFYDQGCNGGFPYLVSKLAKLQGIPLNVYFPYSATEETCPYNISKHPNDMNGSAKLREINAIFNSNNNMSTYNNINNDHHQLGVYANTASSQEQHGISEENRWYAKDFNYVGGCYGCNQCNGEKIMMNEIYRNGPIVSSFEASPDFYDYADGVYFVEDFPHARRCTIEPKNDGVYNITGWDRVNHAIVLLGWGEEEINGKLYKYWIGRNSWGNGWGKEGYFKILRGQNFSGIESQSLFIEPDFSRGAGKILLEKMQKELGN
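Note: 30 min substrate incubation versus DMSO and 10 µM JCP410 controls.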

Row | SMILES | % Inhibition @ 10 uM
1 | COc1cccc(C2CC(c3c(O)cc(C)oc3=O)=NCCS2)c1O (centres unmarked) | -3.62%
2 | CCOc1ccc2[nH]c3ccc4nonc4c3c2c1 | 1.54%
3 | CC1CCC(N2CCC(O)CC2)CC1 (centres unmarked) | -0.0908%
4 | CCOc1cc(C2C(C(=O)OC)=CNC=C2C(=O)OC)ccc1O | -3.14%
5 | Fc1ccc(-c2noc3ncnc(N4CCc5ccccc5C4)c23)cc1 | 3.26%
6 | CCc1ccc(-n2c(C)cc(/C=C3\C(=N)N4N=C(N5CCOCC5)SC4=NC3=O)c2C)cc1 | 0.0579%
7 | CC/C(=N\c1cccc2ccccc12)C1=C(O)CCCC1=O | 0.674%
8 | O=C(Cn1ncc2c3ccccc3nc-2c1O)N1CCC(c2ccccc2)C1 (centres unmarked) | 2.36%
9 | N#CCNC(=O)[C@H](CSc1ccccc1)NC(=O)OCc1ccccc1 | 2.86%
10 | COC(=O)C1=C(C)N(C)C(C)=C(C(=O)OC)C1c1ccc(C)s1 | 5.55%
11 | CCOc1ccccc1N(CC(=O)Nc1ccc(Br)cc1)S(C)(=O)=O | -3.77%
12 | CCc1ccc(CN(C(=O)c2ccccc2OC)C2CCS(=O)(=O)C2)cc1 (centres unmarked) | -5%
13 | FC(F)(F)c1cccc2c1[nH]c1nc3ccccc3nc12 | 3.73%
14 | Cc1ccccc1Cn1c(C(O)c2ccccc2)nc2ccccc21 (centres unmarked) | 2.73%
15 | O=C(O)c1cccc(-c2ccc(/C=C3\SC(=S)N(C4CCCCC4)C3=O)o2)c1 | 7.85%
16 | COc1ccc(-c2cc(C(F)(F)F)n3nc(C(=O)NCCCN4CCOCC4)c(Cl)c3n2)cc1 | 1.58%
17 | CCOc1ccc2nc(SCC(=O)c3ccc(OC)cc3)sc2c1 | 1.13%
18 | N#CC1=C(N)Oc2c(oc(CO)cc2=O)C1c1ccc(Br)s1 (centres unmarked) | 0.726%
19 | C/C(Cl)=C/Cn1c(N2CCOCC2)nc2c1c(=O)[nH]c(=O)n2C | -1.2%
20 | COc1cccc(COC(=O)N[C@@H](CC2CCCCC2)C(=O)NCC#N)c1 | -0.214%
21 | CNc1nsc(C(=O)c2ccc(F)cc2)c1N | 0.0719%
22 | CCCCOc1ccc(-c2ncc([N+](=O)[O-])cn2)cc1 | -0.239%
23 | COc1cccc(C2CC(c3ccc(OC)c(OC)c3OC)n3nnnc3N2)c1 (centres unmarked) | -3.37%
24 | Cc1nc(SCC(=O)NCc2ccccc2)c(C#N)c(C)c1Cl | 1.03%
25 | CC(C)C[C@@H](C#N)NC(=O)[C@H](CC1CCCCC1)NC(=O)OCc1ccccc1 | 0.174%

Row | SMILES | % Inhibition @ 10 uM
26 | CC1CN(Cc2cccc(Br)c2)CC(C)O1 (centres unmarked) | 0.827%
27 | COc1cc2nc(SCC(=O)c3ccccc3)n3nc(C)nc3c2cc1OC | 2.9%
28 | Cc1ccc(Cl)cc1N1CCN(C(=O)CN(c2ccc(F)cc2)S(C)(=O)=O)CC1 | 24.4%
29 | CS(=O)(=O)N(CC(=O)N1CCN(c2ccccc2F)CC1)Cc1ccccc1 | -3.71%
30 | O=C(O)c1ccccc1/C=C\c1ccsc1 | 6.4%
31 | CN1C(=O)C(=Cc2cccn2-c2nnc(-c3ccccc3)s2)C(=O)N(C)C1=O | 5.1%
32 | O=C(O)[C@H]1CCCC[C@H]1C(=O)NCCC1=CCCCC1 | -11.9%
33 | CCCC(=O)c1c(NC(C)C)cc(C)oc1=O | -0.192%
34 | COc1cc(C2=N/C(=C\c3cccnc3)C(=O)O2)cc(OC)c1OC | -1.87%
35 | Cc1nc2c(C(=O)NC3CCCCC3C)cnn2c(C)c1Cc1cccc(Br)c1 (centres unmarked) | 1.27%
36 | COc1ccc(C(=O)c2c(N)c(C#N)c(C)n2-c2ccccc2)cc1 | -0.712%
37 | CCOc1ccc(-n2cc3c(c2-c2ccccc2Cl)c(=O)n(C)c(=O)n3C)cc1 | 2.02%
38 | c1ccc(-c2nc3cc(Oc4ccc5[nH]c(-c6ccccn6)nc5c4)ccc3[nH]2)nc1 | -2.92%
39 | COc1cc(CN2CCN(c3cccc(C)c3C)CC2)cc(Br)c1O | 0.847%
40 | CN1CCC/C1=N/C(=S)CN1CCCC1=S | 13%
41 | O=C1NCCCC[C@@H]1NC1CCN(Cc2ccccc2)CC1 | -3.6%
42 | CCOc1ccc(S(=O)(=O)N(CC(=O)N2CCc3ccccc3C2)c2ccccc2)cc1 | -1.38%
43 | CC(C)CCNC(=O)Cn1cc(C=O)c2ccccc21 | -2.72%
44 | CCCOc1ccccc1C(=O)N(Cc1ccc(C)cc1)Cc1ccco1 | 4.47%
45 | CN(C)CCN(C)Cc1ccc(Br)cc1 | 0.827%
46 | C=CCSc1nc2c(c(=O)n(C)c(=O)n2C)n1Cc1ccc(Cl)cc1 | -2.16%
47 | COc1c(Cl)cc(Cl)cc1/C=N/C(=O)CC#N | 1.25%
48 | COc1ccc(C2CC(C(F)(F)F)n3ncc(C(=O)N(C)CCC#N)c3N2)cc1OC (centres unmarked) | -2.22%
49 | O=C(NCc1ccc2c(c1)OCO2)c1cc2c(s1)CS(=O)(=O)C2 | -11.6%
50 | O=C(Nc1ccccc1)Nc1cc(Cl)ccc1Cl | -5.68%
